Results are given in words; binding and its absence hold for the method and conditions named. Some binding calls cover weakened binding; strength is not graded here.
Experiments:
[1] = target: pUL34_(1-168) (HSV1 (herpes simplex virus type 1)) (UniProt P10218); assay: two-hybrid
[2] = target: pUL34_(1-180) (HSV1 (herpes simplex virus type 1)) (UniProt P10218); assay: two-hybrid
[3] = target: pUL34_(1-203) (HSV1 (herpes simplex virus type 1)) (UniProt P10218); assay: two-hybrid
[4] = target: pUL34_(1-252) (HSV1 (herpes simplex virus type 1)) (UniProt P10218); assay: two-hybrid
[5] = target: GST-pUL34_(1-252) (HSV1 (herpes simplex virus type 1)) (UniProt P10218); assay: pull-down; both purified

Sequences of proteins named here, by UniProt entry; tags and fusion partners are left off. A change or cut given only in a name is not applied to a line headed by its entry. Residues count along the entry.
UniProt P10218: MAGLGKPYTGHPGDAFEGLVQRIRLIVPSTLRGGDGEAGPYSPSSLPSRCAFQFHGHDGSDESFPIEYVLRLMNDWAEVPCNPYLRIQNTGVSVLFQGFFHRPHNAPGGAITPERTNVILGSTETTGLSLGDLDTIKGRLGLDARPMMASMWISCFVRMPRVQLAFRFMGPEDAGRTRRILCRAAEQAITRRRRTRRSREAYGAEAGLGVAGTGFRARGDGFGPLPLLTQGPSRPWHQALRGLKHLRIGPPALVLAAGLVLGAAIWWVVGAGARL
GST-pUL34_(1-252) (HSV1 (herpes simplex virus type 1)): residues 1-252 of P10218
pUL34_(1-203) (HSV1 (herpes simplex virus type 1)): residues 1-203 of P10218
pUL34_(1-180) (HSV1 (herpes simplex virus type 1)): residues 1-180 of P10218
pUL34_(1-168) (HSV1 (herpes simplex virus type 1)): residues 1-168 of P10218
UniProt O15131: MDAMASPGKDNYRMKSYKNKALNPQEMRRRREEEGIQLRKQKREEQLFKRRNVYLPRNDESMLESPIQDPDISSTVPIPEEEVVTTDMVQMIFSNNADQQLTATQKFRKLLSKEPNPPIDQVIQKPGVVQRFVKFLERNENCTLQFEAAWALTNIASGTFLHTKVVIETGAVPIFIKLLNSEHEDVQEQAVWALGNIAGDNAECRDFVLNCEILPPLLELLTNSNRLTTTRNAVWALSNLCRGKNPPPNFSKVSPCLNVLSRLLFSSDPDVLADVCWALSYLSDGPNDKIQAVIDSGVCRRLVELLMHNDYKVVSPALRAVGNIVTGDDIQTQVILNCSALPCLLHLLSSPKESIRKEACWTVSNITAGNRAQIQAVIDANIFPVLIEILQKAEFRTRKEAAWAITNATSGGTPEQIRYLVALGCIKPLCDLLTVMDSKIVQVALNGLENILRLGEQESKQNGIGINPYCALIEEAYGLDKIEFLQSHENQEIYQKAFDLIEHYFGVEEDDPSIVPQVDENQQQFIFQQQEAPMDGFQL
UniProt P10215: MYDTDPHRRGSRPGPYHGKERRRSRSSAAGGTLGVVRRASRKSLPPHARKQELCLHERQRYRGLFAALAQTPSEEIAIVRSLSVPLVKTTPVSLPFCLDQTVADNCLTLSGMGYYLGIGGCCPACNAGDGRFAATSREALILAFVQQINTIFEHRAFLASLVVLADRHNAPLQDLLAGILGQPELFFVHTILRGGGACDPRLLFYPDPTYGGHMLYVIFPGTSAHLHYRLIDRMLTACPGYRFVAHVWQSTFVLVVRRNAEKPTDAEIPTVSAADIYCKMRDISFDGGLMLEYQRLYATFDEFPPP
UniProt O00629: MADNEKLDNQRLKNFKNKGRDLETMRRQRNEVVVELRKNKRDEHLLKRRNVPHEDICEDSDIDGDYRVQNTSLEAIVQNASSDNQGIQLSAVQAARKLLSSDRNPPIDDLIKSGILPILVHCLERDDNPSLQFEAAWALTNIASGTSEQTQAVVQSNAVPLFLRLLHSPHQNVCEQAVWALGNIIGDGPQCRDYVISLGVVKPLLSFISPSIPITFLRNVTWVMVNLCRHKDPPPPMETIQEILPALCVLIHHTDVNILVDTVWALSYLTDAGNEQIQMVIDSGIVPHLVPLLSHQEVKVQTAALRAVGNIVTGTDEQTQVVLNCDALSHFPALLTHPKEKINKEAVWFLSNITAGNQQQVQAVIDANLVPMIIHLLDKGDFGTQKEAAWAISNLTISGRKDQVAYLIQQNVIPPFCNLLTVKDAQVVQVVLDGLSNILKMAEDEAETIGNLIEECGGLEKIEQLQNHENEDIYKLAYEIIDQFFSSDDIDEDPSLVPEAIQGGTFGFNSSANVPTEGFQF
UniProt Q14974: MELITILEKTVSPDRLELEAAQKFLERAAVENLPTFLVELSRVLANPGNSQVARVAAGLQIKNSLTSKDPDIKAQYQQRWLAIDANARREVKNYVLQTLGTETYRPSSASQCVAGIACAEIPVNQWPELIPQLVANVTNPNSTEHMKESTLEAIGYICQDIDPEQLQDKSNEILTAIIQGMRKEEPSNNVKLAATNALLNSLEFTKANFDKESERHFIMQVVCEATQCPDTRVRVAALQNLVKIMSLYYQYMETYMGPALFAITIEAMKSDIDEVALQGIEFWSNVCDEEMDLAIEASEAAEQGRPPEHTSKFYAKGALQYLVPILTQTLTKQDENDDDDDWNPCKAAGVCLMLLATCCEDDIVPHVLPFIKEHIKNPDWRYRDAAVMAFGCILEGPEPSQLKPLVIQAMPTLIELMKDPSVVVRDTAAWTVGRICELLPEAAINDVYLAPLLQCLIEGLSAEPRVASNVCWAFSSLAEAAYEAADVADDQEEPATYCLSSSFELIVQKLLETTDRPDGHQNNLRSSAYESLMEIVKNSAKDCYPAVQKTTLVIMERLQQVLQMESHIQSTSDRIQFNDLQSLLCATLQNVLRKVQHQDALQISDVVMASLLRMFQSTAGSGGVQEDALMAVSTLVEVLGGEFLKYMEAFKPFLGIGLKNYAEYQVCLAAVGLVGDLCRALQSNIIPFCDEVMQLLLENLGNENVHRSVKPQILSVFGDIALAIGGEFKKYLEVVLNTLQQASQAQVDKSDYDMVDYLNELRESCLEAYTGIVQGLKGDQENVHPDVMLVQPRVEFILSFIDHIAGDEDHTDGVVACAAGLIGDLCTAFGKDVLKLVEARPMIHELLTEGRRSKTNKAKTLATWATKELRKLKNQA

Row | Substance | binding [1] | binding [2] | binding [3] | binding [4] | binding [5]
1 | α importin KPNA5 (from UniProt O15131 1-539) | no binding | no binding | binds | binds | –
2 | pUL31 (from UniProt P10215 1-306) | – | binds | – | binds | –
3 | α importin KPNA4 (from UniProt O00629 1-521) | no binding | no binding | binds | binds | –
4 | KPNB1-His6 (from UniProt Q14974 1-876) | – | – | – | – | binds
5 | KPNA5-His6 (from UniProt O15131 1-539) | – | – | – | – | binds

— article PMC8402719
